Test results: the BET-seq Pho4 binding data (Le et al. 2018)
Some of the results follow. These are noisy estimates, calculated here from bound and input reads.

What follows are sequences tested against T1, Pho4 (S. cerevisiae) (UniProt P07270) (assay: relative binding free energy (BET-seq); higher = weaker binding). Details: reference: library average.
T1 sequence: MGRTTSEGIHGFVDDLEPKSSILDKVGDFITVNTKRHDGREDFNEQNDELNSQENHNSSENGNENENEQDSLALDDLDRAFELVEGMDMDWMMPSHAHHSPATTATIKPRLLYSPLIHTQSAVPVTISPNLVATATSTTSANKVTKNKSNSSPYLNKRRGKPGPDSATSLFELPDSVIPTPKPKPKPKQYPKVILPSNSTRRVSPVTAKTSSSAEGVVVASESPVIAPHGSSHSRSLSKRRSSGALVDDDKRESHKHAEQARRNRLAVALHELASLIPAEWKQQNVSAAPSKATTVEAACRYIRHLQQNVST

Sequence	relative binding free energy [kcal/mol]
TGAGGCACGTGTGCAT	-0.13
TGAATCACGTGTATAT	0.03
TTGAACACGTGAGTAT	0.16
GTTAGCACGTGTACAG	0.11
TGTGCCACGTGGCGTT	-0.22
AATTGCACGTGAGTTC	0.3
AAATACACGTGTGGGA	0.06
ATAGTCACGTGTGTGT	0.14
GGTGGCACGTGCTGAG	-0.18
TATTTCACGTGCTATG	0.14
GGTGCCACGTGGTGTG	-0.21
ATCTGCACGTGAGGGT	0.28
TGGTACACGTGGTCGC	0.03
CAATTCACGTGGGAGT	0.13
TTTATCACGTGTATTT	0.18
GGTAGCACGTGTGTTA	0.01
AGATTCACGTGAGGCG	0.27
TGGTGCACGTGGAAAG	0.01
TGAACCACGTGTTGTG	-0.17
GGAAACACGTGGGTTA	0.02
TATTTCACGTGTTGCT	0.18
ACTGGCACGTGGGTTT	-0.12
CGTGACACGTGTTTGT	0
CTCGGCACGTGGGTTA	-0.17
CGGTGCACGTGAAGTT	0.26

Sequence	relative binding free energy [kcal/mol]
GTAGGCACGTGGTCGG	-0.15
CTGAGCACGTGGGGTT	-0.29
GTTTGCACGTGTGTAT	0.16
CGGGGCACGTGTTAGA	-0.13
TGTTGCACGTGCTGCG	-0.06
AGTACCACGTGAGTGT	0.12
TCATTCACGTGTGTGT	0.17
TGCACCACGTGGTGTG	-0.23
GGTGACACGTGAGGAA	0.25
TGTGTCACGTGGACGC	-0.03
AGGAACACGTGTAGTG	0.07
GAAGTCACGTGTGTTC	0.15
TAGTGCACGTGGATGT	0.04
TTTAACACGTGATTGC	0.17
GACGTCACGTGGATGT	0.06
GGGCCCACGTGGGAGT	-0.12
CATGGCACGTGTGGAG	-0.07
CGGGGCACGTGCGGTA	-0.06
GGTATCACGTGGGCTA	-0.06
AGGTACACGTGGGTTT	-0.05
ATTTACACGTGTATTT	0.15
AGTCTCACGTGGTAAG	0.16
AGGATCACGTGGACGG	0.15
AGTCACACGTGGAAGT	0.32
TTTCGCACGTGTAGCT	-0.01

Sequence	relative binding free energy [kcal/mol]
GTGAACACGTGTAGTA	0.01
GAGTTCACGTGTTCAG	0.24
ATTTTCACGTGTATAA	0.12
CGCGTCACGTGTGTTT	0.1
GTGGGCACGTGAAGAA	0.03
AAGTGCACGTGTACGG	-0.14
AGCGACACGTGAGGGG	0.18
TTTAACACGTGTTTGG	0
AGGGGCACGTGAGTGG	0.15
TATGCCACGTGTGTTA	-0.06
CCTTTCACGTGGGTGG	0.16
AGTAGCACGTGCAGGA	-0.03
TTTTACACGTGTATCA	0.15
AGATTCACGTGGAGGC	0.31
AGGGGCACGTGCGATC	-0.08
CATTGCACGTGGAGTG	-0.02
AGTCACACGTGCGGGG	-0.07
TAGGGCACGTGTTCGG	-0.07
TAGTGCACGTGCATTA	-0.05
AGGATCACGTGGGAGC	-0.01
CAAGGCACGTGTGTCG	0.05
AGGGGCACGTGTTTCA	-0.15
GGTTGCACGTGGAACT	0.08
TTGGTCACGTGTTACC	0.13
ATCGGCACGTGATTGG	0.02

Sequence	relative binding free energy [kcal/mol]
AGAGCCACGTGTAGGT	-0.09
GGTTTCACGTGCTGCT	0.29
GTAGACACGTGTGTTA	0.01
GTAATCACGTGGGGTT	0.07
TTTGGCACGTGTTTGG	-0.04
TAATTCACGTGGGGAT	0.27
AGGCGCACGTGTATTG	-0.17
ACTGTCACGTGTAATT	0.13
TTAGTCACGTGGAAAA	0.21
CACGGCACGTGTGGGA	-0.01
CGCGGCACGTGTCAGG	0.02
TGGTACACGTGAAGTA	0.29
TATATCACGTGTGGTC	0.09
ATATTCACGTGATGAG	0.23
TATGGCACGTGGATGC	-0.03
ATGCGCACGTGAGAGT	0.12
AAATGCACGTGTTTTA	-0.07
AGTTTCACGTGATAGC	0.52
GATAGCACGTGATGGG	0.14
TTTTTCACGTGGTATC	0.24
TGTGGCACGTGAAGTG	0.26
GCAGGCACGTGTATGT	-0.07
GAGTTCACGTGGGGAT	0.24
AGTGCCACGTGTGTTT	0.03
TAGGGCACGTGTAGTA	-0.16

Sequence	relative binding free energy [kcal/mol]
GGTTACACGTGTGCGC	0.04
CAGGGCACGTGACAGG	0
CTTGGCACGTGTTGTC	-0.17
AGCTGCACGTGATTGT	0.01
TTTTGCACGTGGCTCG	-0.07
TGGGGCACGTGTCGAG	-0.04
TAAGGCACGTGTAGTA	-0.01
TTAAACACGTGCATGG	-0.04
CTTCGCACGTGTTGGT	-0.01
ATTGACACGTGGTGTG	-0.13
AGTGGCACGTGGTGTA	-0.23
GTTACCACGTGGTATG	-0.1
TGGCGCACGTGTGGAT	0.07
TGAGTCACGTGAATTA	0.27
TGGAGCACGTGTAGAT	0.14
GGTGTCACGTGGCTTT	0.07
AGCTGCACGTGGTATT	-0.11
TTCGGCACGTGATGTG	0.09
GTTGACACGTGTGTTG	0.05
GTTTTCACGTGATCTT	0.54
GGGGTCACGTGTGACG	0.28
TAGTTCACGTGCAAGT	0.28
CTAATCACGTGGTTTG	0.09
TACGGCACGTGTTTTA	0.01
AGTTACACGTGGGGTG	-0.11

Sequence	relative binding free energy [kcal/mol]
CGTTGCACGTGTCGTA	0.11
TATGGCACGTGATAGT	0.04
TCTGTCACGTGGCGTG	0.05
AGGAGCACGTGTGGGT	0.05
TGAGTCACGTGATGTA	0.07
AGTGCCACGTGAGGAT	0.3
TTAATCACGTGAAGGA	0.26
GATTACACGTGTGTAA	0.19
GTAATCACGTGGGCTG	0.01
GTCTGCACGTGCGGGG	-0.06
GTTTGCACGTGTCAGT	0.07
GGCTACACGTGGTGAT	0.13
TTAATCACGTGCGGTT	0.27
CTTCTCACGTGGGGGT	0.14
AGGGGCACGTGGCATG	-0.31
ATGGTCACGTGCTGTC	0.03
GTGGGCACGTGGATCA	0
TTGTTCACGTGGGTAG	0.18
CGAGGCACGTGGCGGT	-0.23
TTATTCACGTGTATCG	0.43
GATCTCACGTGGTGTT	0.32
